Data as given in the supplement of paper PMC11417369.
± gives the standard deviation of the averaged measurements. This is one part of the list.

Test system: PfAP2-I AP2 domain 3 (GST-tagged)
Test: gcPBM binding intensity (ln(normalized median fluorescence intensity)); higher = stronger DNA binding
Outline: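 Probes on an Agilent 4 × 180k array were primer-extended, double-stranded and 36 bp long, taken from intergenic genomic regions, with negative controls added. GST-tagged P. falciparum DNA-binding domains from E. coli, about 25 μg on average, were applied to the array for 1 h in 1× PBS containing 1% milk, 0.2 mg/ml BSA, 0.5% salmon testes DNA and 0.03% Triton X-100. Binding intensity, obtained after Alexa488 anti-GST antibody detection and a 488 nm scan, is the highest Masliner-normalised natural-log median intensity across replicate spots of either probe orientation.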

Row | Sequence | gcPBM binding intensity (ln)
1 | TTAAAACCAAAACACAGTACATATATATATATATAT [XGTACX_site5668] | 9.6 ± 0.45
2 | AAAATATATTATATATGTACATATTACGTTTTAATT [XGTACX_site2518] | 7.88 ± 0.4
3 | CAATTTTAAGTAATCAATTTTTTTAAAAAACACAAA [CACACA_negctrl_site961] | 7.71 ± 0.27
4 | GCATAATATACTCTTACACACCATTTCTATATACAT [CACACA_site6799] | 8.33 ± 0.68
5 | TTTGTTAATTATAAATGTACATATTATATATATATA [XGTACX_site8870] | 9.16 ± 0.23
6 | TATATATATATGTATACACACATATGTATGTTATGT [CACACA_site4053] | 9.11 ± 0.29
7 | TTGTTTTTAGTTTATACACACCATATTAATATAATG [CACACA_site7452] | 8.26 ± 0.53
8 | ATTTGGCATGGACACACACACACACCGACAGACATA [CACACA_site4491] | 7.95 ± 0.54
9 | TTATATTATGGACACACACACAAAAAAAAAAAAAAA [CACACA_site7744] | 8.14 ± 0.43
10 | AAATTAATTAAATATACACACATATATAAATATATA [CACACA_site391] | 7.46 ± 0.42
11 | ATATATATATAAAGTTGTACATTTTTTATTTTTTCA [XGTACX_site7847] | 9.09 ± 0.16
12 | TTGACACGTATATGCACACACCCGTAAGTGTCCATT [CACACA_site2764] | 9.485 ± 0.064
13 | ATATTTTATTATTGTTGTACTTTTTTTTGATTGTTT [XGTACX_site4090] | 7.86 ± 0.46
14 | TTTAATATTTTTCAATGTAGAAAGTTTGTCTGTTAT [CACACA_negctrl_site973] | 7.76 ± 0.35
15 | AGTTATAAACATATGTGTACTTATAAAAACATATAG [XGTACX_site3268] | 7.87 ± 0.47
16 | TCACACATATATTCATGTACATATTAATATTTCCAT [XGTACX_site5387] | 8.3 ± 0.44
17 | TTTTTTATGAACACGTCACACATCATTAAAATGTTT [CACACA_site5934] | 7.74 ± 0.64
18 | TTGATGATATAAAAAAGTACTTATATTATATTATAT [XGTACX_site6492] | 7.79 ± 0.42
19 | TTTTGTAAAAAAAAAAAAAAAGGAAAATTAAAATAA [CACACA_negctrl_site803] | 7.32 ± 0.67
20 | TTTCCTATTTAATATAGTACATAAGAAATAATTTTA [XGTACX_site5952] | 7.48 ± 0.38
21 | CTTGTATTTAAACACACACACACTTTCTTTTTTTAA [CACACA_site5133] | 7.99 ± 0.49
22 | AATATTATAATATAAACACACAAAATTCAATTATAT [CACACA_site3789] | 7.6 ± 0.68
23 | AACGTTCATATTTCCACACACAAAAAATAAATATAA [CACACA_site3344] | 8.21 ± 0.33

Row | Sequence | gcPBM binding intensity (ln)
24 | TTAATATTAATATATTGTACATATATGCACATATTT [XGTACX_site6569] | 9.1 ± 0.18
25 | AAAAATAAAGGGCGAAAAAAAAAAAAAAAAAAAAAA [GTGCAC_negctrl_site671] | 8.14 ± 0.71
26 | ATTAATAATATTCCTTGTACATGATTTTTCTAAATA [XGTACX_site7099] | 7.9 ± 0.47
27 | TATAAATATAAATACACACACACATCAATACAGATA [CACACA_site5850] | 7.87 ± 0.29
28 | AAAAAAAAAAAAAAAACACACATACACCCCCACCCA [CACACA_site9117] | 9.83 ± 0.085
29 | TATAATAATGCCTTTACATGCAATAATAAAGAAATA [TGCATGCA_site631] | 7.82 ± 0.47
30 | AATGAATTAATAGCTACACACGGTAACATAATAACT [CACACA_site851] | 7.67 ± 0.59
31 | TCTTTTGAACAAATTTGTACGTATATAAAAATATTT [XGTACX_site6547] | 7.88 ± 0.47
32 | TGTGTTAATAGAAAAAGTACATATACATATATATAT [XGTACX_site4951] | 8.98 ± 0.22
33 | TGCACAGACGGACACACACACAACTAAAAAATAATG [CACACA_site5424] | 8.26 ± 0.26
34 | ATATTTCATCTAGCTACACACATATAACAAATTACT [CACACA_site7843] | 8.19 ± 0.54
35 | TACATAAAAATATCACGTACATATAATCATATACTA [XGTACX_site3505] | 7.69 ± 0.23
36 | ACCTTTGATATATACACACACATAAAAAAAATATAT [CACACA_site6952] | 8.35 ± 0.38
37 | TTCTTTTTCCAATTTGCACACCACAAAATTATATAT [CACACA_site2909] | 9.94 ± 0.21
38 | TCAAATTATATGAGTGGTACACATGTAATATTTTTA [XGTACX_site6518] | 7.6 ± 0.28
39 | AAAAAACGACCTTACGCACACATTATTCTAGTCTAT [CACACA_site2349] | 8.31 ± 0.62
40 | ATATTTTGTATAATCACACACACTATTATTAAATAG [CACACA_site2612] | 7.79 ± 0.58
41 | TTACATTTTTTATGTTTTTTTATATTGCAAAAAAAT [CACACA_negctrl_site1050] | 8 ± 0.16
42 | ATATATATATATATATGTACTTATTAAGATTAAAAA [XGTACX_site61] | 9.26 ± 0.27
43 | AAAAAAATATATATTACACACATATATACATATATA [CACACA_site3125] | 7.82 ± 0.32
44 | TTAAATATAAAAAGTAGTACATTTATATTTACCATA [XGTACX_site2962] | 7.74 ± 0.16
45 | TTTTTTTTTTAAAAAACACACACCTAAACAAGATAT [CACACA_site875] | 7.96 ± 0.59
46 | ATATATATATATATTTGTACATATATATAATTTTTC [XGTACX_site7460] | 9.49 ± 0.64

Row | Sequence | gcPBM binding intensity (ln)
47 | AAAATAAAAAAAAAAGGTACACAAAAAGATGGACTG [XGTACX_site2650] | 7.83 ± 0.64
48 | TATAATTGTCTTCACACACACATATATATATATATA [CACACA_site2743] | 9.36 ± 0.35
49 | ATGTTGTCAAAAAAATGTACTTACATAATATTTTCC [XGTACX_site1732] | 7.68 ± 0.52
50 | CGCATACACCAACACACACACACATATATATATATA [CACACA_site635] | 9.53 ± 0.52
51 | TATAAATACTTATATGTACACACATATAGATATATA [CACACA_site8819] | 7.65 ± 0.042
52 | ATCTAATATATATTCTGTACGTAATTAAAACCACAA [XGTACX_site3152] | 8.21 ± 0.39
53 | AGAAGTCTGTAATGATGTACTGGAAAAATATAAATA [XGTACX_site8148] | 7.68 ± 0.63
54 | TAGATCTTATTTACAAGTACATATATACGATTCATT [XGTACX_site7578] | 7.65 ± 0.51
55 | CACCCCCACAGACACACACACACACCCATATATATA [CACACA_site364] | 9.09 ± 0.59
56 | AAGATTCATTGGTTCTGTACAAAATAAACACTATAA [XGTACX_site834] | 7.81 ± 0.45
57 | TTACCAAAAAAATGTAGTACAATATAATATTATTTA [XGTACX_site5750] | 8.12 ± 0.12
58 | AATATATATATTTAAGTGCATAATATTGTAATATTA | 10.4 ± 0.38
59 | ATATATTATGAAGACTGTACATTTACATGAAAAAAA [XGTACX_site7203] | 7.83 ± 0.59
60 | ATAAAAATAAAAAGTGTGCACACAAAAATATATATA [GTGCAC_site9931] | 9.96 ± 0.33
61 | TTAATTGACATAAAAAGTACTCATATAGATATGCAC [XGTACX_site6391] | 8.965 ± 0.078
62 | AAAAAGAACAGAAACACACAAATAAAATAAAATTGT [CACACA_site6921] | 7.72 ± 0.61
63 | AAATGTTAATAAAGGTGTACACAAAATAAAAAAAAT [XGTACX_site463] | 8.76 ± 0.57
64 | TAATTTTATTTTATATGTACGCAATACAAATATATA [XGTACX_site8461] | 7.86 ± 0.21
65 | AAATGACATTTCAAAAGTACATATTTAATTAATTAA [XGTACX_site2919] | 7.67 ± 0.45
66 | TTTATATATATAATATGTACACATAATAATAATACA [XGTACX_site4862] | 7.89 ± 0.23
67 | TTTATTTAAAAAGTTTGTACATATATATTATTTTGA [XGTACX_site6040] | 7.55 ± 0.48
68 | CATATATAAATATATACACACATACATACATACATA [CACACA_site5988] | 7.93 ± 0.66
69 | ATATTATAGTTATGAACATGCAAACATTACGAAATA [TGCATGCA_site54] | 7.71 ± 0.72

Row | Sequence | gcPBM binding intensity (ln)
70 | AAAAAATATTAGACTTATAAAGCATAAAGGATATTA [GTGCAC_negctrl_site588] | 7.57 ± 0.67
71 | AATTTATTATTTTATTGTACGTATTTTTTTTTTTAT [XGTACX_site2298] | 8.1 ± 0.2
72 | ATATTTGCATGTGGTAGTACATAACATTCTTTTACA [XGTACX_site8194] | 8.29 ± 0.57
73 | ATATCTTATAATACGGTGCACTTGACATGAACAACT [GTGCAC_site9987] | 10.7 ± 0.3
74 | CTTCAATTAAAATTCACACATATAAATTAAAATATT [CACACA_site6129] | 7.54 ± 0.39
75 | ATATATAATTAATTTTGTACACATAAAAAAAAAAAT [XGTACX_site6647] | 7.96 ± 0.38
76 | AGAGAGAAAGCTATAACATGCAACAATTTTTTGAAA [TGCATGCA_site514] | 7.62 ± 0.61
77 | AAATAGAGAAATACAAGTACATATCAAACCAATATA [XGTACX_site1192] | 7.64 ± 0.53
78 | CTTTTGTCATTCTTTTGTACACAGTTTGAAATATGT [XGTACX_site1457] | 8.3 ± 0.33
79 | ATAATAAATAAATAATGTACATATGAAAGAATAAAT [XGTACX_site8355] | 8.18 ± 0.7
80 | ATAAAAAAGAAACAAACACACATACATACAAACAAA [CACACA_site4256] | 7.99 ± 0.38
81 | TACATTTATATATATACACACACACTAATAAAAAAA [CACACA_site8845] | 8 ± 0.54
82 | ATATGTATATATAAGGTGCAGAAAGGTGGGCAAAAG | 10.8 ± 0.39
83 | TAAATACAGATATATACACACATATATATATTTTAT [CACACA_site5970] | 7.5 ± 0.35
84 | TCATATATTTTAATATGTACACATTTTTTTGGTATA [XGTACX_site8695] | 7.79 ± 0.35
85 | TACAGACTAAAATACACACACACACGCACATATATA [CACACA_site7875] | 8.07 ± 0.49
86 | TTTTTCTTTATTAGCACACATAATATTATATATGTG [CACACA_site2629] | 8.84 ± 0.44
87 | ATATAAACAATATTTTGTACATAATTTTATGAGCAT [XGTACX_site6933] | 7.8 ± 0.29
88 | AAAGAAAGAAGAAATTGTACATAATAAATAAGTAAA [XGTACX_site3311] | 7.61 ± 0.5
89 | GCATATGTTTATTGCACACACCAAAAAGAAAACATA [CACACA_site4384] | 10.4 ± 0.61
